From the RNAGym collection of RNA variant scans (doi:10.1093/nar/gkz1192) come the findings set out here.

Read counts are not given, so values of variants with three or more changes are uncertain.

The labels stand for the following.
B1: CPEB3 Ribozyme (parent)
chain: UAACAGGGGGCCACAGCAGAAGCGUUCACGUCGCAGCCCCUGUCAGAUUCUGGUGAAUCUGCGAAUUCUGCUGUAUAUCUC

In this series the parent is B1. Description: self-cleavage, relative activity (ratio to wild type); higher = more cleavage; in vitro, sequencing. Put shortly:
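Relative activity was defined as the cleaved/total read fraction for a variant divided by the same fraction for the unmutated ribozyme. CPEB3 self-cleaving ribozyme libraries were made by rounds of error-prone PCR, barcoded, and transcribed in vitro with T7 RNA polymerase for 5 hours at 37°C, and cleavage ran through transcription plus a 15 min DNase I step before EDTA. Illumina sequencing of template-switched reverse transcripts gave the reads, and DNA sequencing mapped the barcodes. Averages come from three batches, using variants with at least 5 reads.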
For G6A A15U U25C C27U A77G, the self-cleavage is 0.19.

On to G6A A35U U41A U78C U80C, for which the self-cleavage amounted to 0.08.

Turning to G6A C38A A57G U69C, the self-cleavage came to 0.05.

With A5U U58C A75G, the self-cleavage is 0.52.

As to G6A C32G U69C U80C, the self-cleavage came out at 0.07.

Take G6A G9C U48C A56G: the self-cleavage was determined as 0.07.

Consider G6A C62U U72C, for which the self-cleavage is 0.17.

As to A5U U60A A64U U69C U76C, the self-cleavage is 0.31.

Regarding G6A A13U A18G U41G A57G, the self-cleavage was found to be 0.09.

In the case of G6A A18G C29U U41G C50U A57G C79U, the self-cleavage was determined as 0.02.

For G6A G10A C11G G24A C79U, the self-cleavage was 0.04.

For G6A G16U C27U A64G U67C, the self-cleavage was found to be 0.12.

Turning to G6A A64G U66A, the self-cleavage was 0.41.

In the case of G6A C27U U48C U74A, the self-cleavage amounted to 0.3.

Turning to G6A G33U U41A, the self-cleavage came to 0.08.

For G6A A28U U51G U58A C68A, the self-cleavage was 0.05.

Turning to A5U U60C G63C A64G A77G, the self-cleavage came out at 0.26.

As to G6A G9A U67C, the self-cleavage came to 0.17.

For G6A A13G A20U U25C U31C A56G U69G, the self-cleavage was 0.11.

As to G6A A18G U43C U51C A56G A57G, the self-cleavage turned out to be 0.3.

Turning to G6A G9U A21G A28G A57G, the self-cleavage amounted to 0.02.

On to G6A A20U A57G U76A, for which the self-cleavage turned out to be 0.14.

In the case of G6A A20G G36A U76C, the self-cleavage amounted to 0.22.

For G6A C34G A77C, the self-cleavage turned out to be 0.16.

For G6A A45U U48C U49C U69G U76A, the self-cleavage came out at 0.04.

For G6A C34U A56G A75U A77U, the self-cleavage came out at 0.19.

Take G6A C39U A45U A64G: the self-cleavage stood at 0.

With G6A C50U U66C, the self-cleavage amounted to 0.25.

Take G6A C40U A45C: the self-cleavage worked out at 0.21.

Take G6A A18U U25C A28U U54C U66C U72A: the self-cleavage came out at 0.06.

With G6A A20G G24A A56G A65U U66C C79A, the self-cleavage turned out to be 0.03.

For the variant G6A A45U U54C A64U, the self-cleavage is 0.13.

In the case of A5U U66C U69C U72A, the self-cleavage was 0.16.

For the variant G6A A28G C38A U43C A45U A65G U66C, the self-cleavage came to 0.12.

Consider G6A A21G A35G U66A, for which the self-cleavage is 0.38.

In the case of G6A A18G U49A U72G, the self-cleavage turned out to be 0.08.

As to G6A C29U A65G U78C, the self-cleavage amounted to 0.11.

As for G6A C23U U60A, the self-cleavage was 0.21.

Regarding G6A C32A U48C U74C, the self-cleavage turned out to be 0.07.

On to G6A A20G U26C U49G A64G A65C U80A, for which the self-cleavage came out at 0.01.

With G6A A13C C29U U72G, the self-cleavage was found to be 0.07.

Turning to A5U U60C U72C G73U, the self-cleavage amounted to 0.59.

Turning to G6A A13U U66C, the self-cleavage turned out to be 0.04.

For G6A A13G U43C, the self-cleavage was 0.42.

As to G6A A20U A57G U67C, the self-cleavage came out at 0.13.

With A5U U67C U80C, the self-cleavage is 0.42.

As to G6A A15G U60C U66C, the self-cleavage was 0.16.

Turning to G6A A18G A35U U60C, the self-cleavage was 0.07.

Regarding G6A G53A U60C A75G, the self-cleavage is 0.04.

For A5U U51C U60C G63A, the self-cleavage came out at 0.45.

Take A5U U60C U66C: the self-cleavage was found to be 0.35.

For the variant G6A G8U A18G U48C, the self-cleavage was 0.26.

For the variant A5U U49G U60A, the self-cleavage was found to be 0.28.

On to G6A C38U U43A A56G A77C, for which the self-cleavage is 0.16.

On to A5U U67C U78A, for which the self-cleavage was found to be 0.3.

G6A G8U A35G A45G A47U U51A A56G: the self-cleavage is 0.06.

As for G6A G7U A13G C17G A35G U41C, the self-cleavage is 0.5.

Turning to G6A G8U A20G A21G U41C A57C, the self-cleavage was determined as 0.07.

For the variant G6A A13G A35G C38U A45U, the self-cleavage stood at 0.23.

As for G6A A35U U43C U66C U72C U78C, the self-cleavage was found to be 0.13.

With G6A C29G U31A A35U A45G U54A U72C, the self-cleavage amounted to 0.05.

For the variant G6A G8U G19C C32U A45U C62U, the self-cleavage is 0.04.

In the case of G6A A15U U43C G73A U76A, the self-cleavage was 0.52.

On to G6A A18U A35C A47G A75U, for which the self-cleavage amounted to 0.06.

With G6A A35G A45U A47G, the self-cleavage worked out at 0.11.

In the case of G6A A45G U49C A64U, the self-cleavage was found to be 0.03.

For G6A A13U A21G U31A, the self-cleavage turned out to be 0.37.

G6A C34A U49G U51A U60C U66C U76C: the self-cleavage came to 0.03.

Regarding G6A A20G U26C U41A U49A U66C U78C, the self-cleavage is 0.05.

G6A A47U U49C U80C: the self-cleavage is 0.1.

As for G6A G10A U25A A28U A45U U54A A77G, the self-cleavage is 0.04.

A5U U60C A77G: the self-cleavage was 0.52.

For the variant G6A A21G A28G U43C A65G U66C, the self-cleavage was 0.33.

Regarding G6A A20G A28U A35U C44U C71U U76C, the self-cleavage was 0.04.

Consider G6A A13G A21G U26C U41C U72A, for which the self-cleavage turned out to be 0.05.

With G6A A13G U25C A56U U67C, the self-cleavage worked out at 0.07.

G6A G33U U49C U54C: the self-cleavage was determined as 0.1.

In the case of G6A C38U A56G U67A G73A, the self-cleavage came out at 0.04.

Consider G6A A18G U25C A57G, for which the self-cleavage was found to be 0.04.

For the variant G6A A20U U43C U58C U67G U74C U76A, the self-cleavage came to 0.02.

As to G6A A45U U66C U72C, the self-cleavage was 0.25.

Take G6A A45C A56U: the self-cleavage turned out to be 0.17.

In the case of A5U U58A A65G U78C, the self-cleavage amounted to 0.15.

As for A5U U58C U60A U74C, the self-cleavage worked out at 0.24.
